Our source for the activation values is PubChem BioAssay AID1645887 (National Center for Advancing Translational Sciences (NCATS), 2021).

Values joined by “and” are separate entries in the source; they are usually repeats but may differ in a detail not shown here. Identical values can stand only once. The whole screen tested about 16,000 compounds, of which about 40 (0.2%) were called active. About 1% were inconclusive and are not listed. Calls follow the shape of the dose curve; as a rule, active = well fitted activation curve with a large enough effect; inconclusive = small, poorly fitted or top-dose-only effect, or another doubt; inactive = no such curve, though single readings can be large or run the other way. This is one part of the list.
% is scaled to controls: 0 for no effect and ±100 for the full control effect.

The target of the assay is Rap guanine nucleotide exchange factor 4 (Homo sapiens) (UniProt Q8WZA2). In words: Validation qHTS for agonist of cAMP-regulated guanine nucleotide exchange factor 4 (EPAC2).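 Also: exchange makes BODIPY-GDP fluorescence drop when released from Rap1B; series mostly up to about 150 µM.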 To be noted: EPAC2 Rap1B BODIPY-GDP exchange, fluorescence; activation: hits give high values. The essentials: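 Fluorescent exchange assay: 100 nM EPAC2 with 250 nM RAP1B-BODIPY-GDP and 50 uM GDP; compound added, 5 min at room temperature, then read (ex 480/em 540 nm) every 5 min for 30 min. Normalized to 6.5 mM cAMP agonist control.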
Sequence of UniProt Q8WZA2 (Q8WZA2 whole entry, looked up): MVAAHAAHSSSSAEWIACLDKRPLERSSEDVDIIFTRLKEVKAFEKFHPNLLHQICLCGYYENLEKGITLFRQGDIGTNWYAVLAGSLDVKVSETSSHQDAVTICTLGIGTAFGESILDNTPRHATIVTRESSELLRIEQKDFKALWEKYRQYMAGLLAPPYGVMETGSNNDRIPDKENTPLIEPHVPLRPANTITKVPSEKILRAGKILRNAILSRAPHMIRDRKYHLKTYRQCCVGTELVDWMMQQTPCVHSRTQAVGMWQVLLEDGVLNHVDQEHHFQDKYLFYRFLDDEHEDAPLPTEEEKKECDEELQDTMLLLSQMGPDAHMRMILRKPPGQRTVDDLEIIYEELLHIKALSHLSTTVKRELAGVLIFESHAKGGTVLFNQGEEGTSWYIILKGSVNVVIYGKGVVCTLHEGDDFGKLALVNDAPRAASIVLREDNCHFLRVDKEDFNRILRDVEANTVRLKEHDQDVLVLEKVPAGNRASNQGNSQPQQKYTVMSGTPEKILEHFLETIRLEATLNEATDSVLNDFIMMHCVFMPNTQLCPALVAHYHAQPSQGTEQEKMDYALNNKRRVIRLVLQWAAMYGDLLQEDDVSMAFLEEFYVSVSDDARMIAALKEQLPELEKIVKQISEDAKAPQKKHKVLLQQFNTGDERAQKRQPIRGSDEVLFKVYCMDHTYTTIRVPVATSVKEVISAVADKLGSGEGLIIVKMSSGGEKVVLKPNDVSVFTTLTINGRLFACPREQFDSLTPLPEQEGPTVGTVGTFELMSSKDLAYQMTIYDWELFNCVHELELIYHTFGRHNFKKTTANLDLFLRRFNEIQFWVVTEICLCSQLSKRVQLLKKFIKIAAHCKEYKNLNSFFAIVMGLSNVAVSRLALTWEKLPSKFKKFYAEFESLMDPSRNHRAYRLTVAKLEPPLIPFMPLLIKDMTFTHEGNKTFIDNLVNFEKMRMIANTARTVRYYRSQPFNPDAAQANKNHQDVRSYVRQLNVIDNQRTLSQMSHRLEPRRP
Background: Quantitative high-throughput screening tests each substance at several concentrations.
`COc1ccccc1CNc1cc(-c2ccc(C(=O)N(C)C)cc2)ncn1`: the activation is inactive: -19%.
Turning to `CO[C@@]1(NC(=O)C(C(=O)O)c2ccc(O)cc2)C(=O)N2C(C(=O)O)=C(CSc3nnnn3C)CO[C@@H]21` (stereo partly specified), the activation is inactive: -3.22%.
Take `C=CCc1cc(OC)c(O)c(C(=O)NCCO)c1`: the activation is inactive: -6.67%.
In the case of `Cc1ccccc1-c1cccc(CN2CCc3nnc(C(NS(C)(=O)=O)C(C)C)n3CC2)c1` (stereo unspecified), the activation is inactive: 0.685%.
On to `O=c1c(O)c(-c2ccccc2)oc2ccccc12`, for which the activation is inactive: -14.3%.
For `CN1CCN(c2ncc3ncc(=O)n(CCC#N)c3n2)CC1`, the activation was inactive: -13.1%.
As for `O=C(O)CNC(=O)c1ccccc1`, the activation was inactive: -7.47%.
For the molecule `O=C(c1csnn1)N1CCC2(CC1)CN(c1ccncc1)C2`, the activation was inactive: -4.23%.
Take `O=C(c1cnccn1)N1CCC2(CC1)CN(Cc1ccccc1)C2`: the activation is inactive: -4.86%.
On to `COc1cc2c(CCNC(C)=O)c[nH]c2cc1O`, for which the activation is inactive: -4.73%.
In the case of `N#Cc1ccc(CN2CC3(CCN(C(=O)c4cnccn4)CC3)C2)cc1` it was inactive: 1.7%; in that of `O=C1CC[C@@H](C(=O)O)N1`, inactive: -12.5%; in that of `C#C[C@]1(O)CC[C@H]2[C@@H]3CCC4=CC(=O)CC[C@@H]4[C@H]3CC[C@@]21C`, inactive: -8.06%.
Regarding `CC(=O)N[C@@H]1C(O[C@H]2O[C@H](C(=O)O)C(O)[C@H](O)[C@H]2O)[C@H](O)[C@@H](CO)O[C@H]1O[C@@H]1C(C(=O)O)O[C@@H](O[C@H]2[C@H](O)[C@@H](CO)OC(O)[C@@H]2NC(C)=O)[C@H](O)[C@H]1O` (stereo partly specified), the activation is inactive: -11.1%.
Consider `CC(=O)c1ccc(C(=O)N2CCCC(c3nc(SCc4ccccn4)ncc3C)C2)cc1` (stereo unspecified), for which the activation is inactive: -2.66%.
In the case of `Cc1ccc(CN2CCOc3ccc(CN4CCN(CCO)CC4)cc3C2)s1` it was inactive: -20%; in that of `Nc1[nH]nc2nc3ccccc3nc12`, inactive: -22%; in that of `O=C(CSc1ncccn1)NCC1Cc2cccc(-c3ncccn3)c2O1` (stereo unspecified), inactive: 2.05%.
With `C/C=C(/C)C(=O)OC1C(OC(C)=O)[C@@]2(CO)C(O)C[C@@]3(C)C(=CCC4[C@@]5(C)CCC(OC6OC(C(=O)O)[C@@H](O[C@@H]7OC(CO)C(O)C(O)C7O)C(O)[C@H]6O[C@@H]6OC(CO)C(O)C(O)C6O)[C@](C)(CO)C5CC[C@@]43C)C2CC1(C)C` (stereo partly specified), the activation is inactive: -3.31%.
As to `COc1cccc(Nc2ncc3nc(-c4ccc(Cl)cc4)c(=O)n(C[C@H]4CCCO4)c3n2)c1`, the activation was inactive: -7.24%.
`N[C@H]1CCN(O)C1=O`: the activation is inactive: -6.89%.
On to `COc1ccc2[nH]cc(CCNc3ccnc(-c4ccc(N(C)C)cc4)n3)c2c1`, for which the activation was inactive: 13.4%.
Regarding `CC(=O)OC1CC2C(C)(C)C(=O)C=C[C@]2(C)C2CC[C@@]3(C)C(c4ccoc4)OC(=O)C4O[C@@]43[C@]12C` (stereo partly specified), the activation is inactive: 5.15%.
For the molecule `O=C(c1cnccn1)N1CCC2(CC1)CCN(C(c1ccccc1)c1ccccc1)CC2`, the activation is inactive: -22.8%.
Turning to `CCCCCCCCCC[n+]1ccc(/C=C/c2c[nH]c3ccccc23)cc1`, the activation is inactive: 30.5%.
With `C#C[C@]1(OC(C)=O)CC[C@H]2[C@@H]3CCC4=C[C@@H](OC(C)=O)CC[C@@H]4[C@H]3CC[C@@]21C`, the activation was inactive: -23.5% and inactive: -16.8%.
Turning to `COC(=O)c1c(Cl)c(Cl)c(C(=O)OC)c(Cl)c1Cl`, the activation was inactive: 3.31% and inactive: -3.94%.
In the case of `CN(C)Cc1ccccc1-c1nc(NCc2ccccc2)c2ccccc2n1` it was inactive: -3.89%; in that of `Cc1nc2cnc(N3CCOCC3)nc2n(C2CC2)c1=O`, inactive: 4.9%.
For `CCOC(=O)/C=C/c1ccc2c(c1)S(=O)(=O)N(C1CCCC1)[C@H]2CC(=O)OCC`, the activation was inactive: -18.5%.
In the case of `Cc1noc(C)c1-c1nccc(NCc2cccnc2)n1`, the activation was inactive: -10.2%.
For `Cc1ccc2nccc(/C=C/c3ccc(N(C)C)cc3)c2c1`, the activation was inactive: -79.4%.
`O=C(NCc1nnc2n1CCN(Cc1cccc(C(F)(F)F)c1)CC2)c1ccncc1`: the activation is inactive: -10.9%.
Regarding `COc1ccc([C@@H]2CNC(=O)C2)cc1OC1CCCC1`, the activation was inactive: -30.4% and inactive: -17.2% and inactive: -16.5%.
Regarding `CC(C)NC(=O)N1CCC2(CC1)CCN(S(C)(=O)=O)CC2`, the activation is inactive: -0.712%.
As to `Cc1c(C(=O)NCCCc2ccncc2)cnn1-c1nccc(-c2ccccc2F)n1`, the activation is inactive: -21.1%.
For `Cc1ccccn1`, the activation is inactive: 8.79%.
As for `NS(=O)(=O)c1ccc(C(=O)O)cc1`, the activation was inactive: -20.1%.
Take `Cc1noc(C)c1-c1cncnc1NCCN1CCOCC1`: the activation was inactive: -5.64%.
Regarding `CCCCCCCCCCCCC/C=C/[C@@H](O)[C@H](CO)N(C)C`, the activation is inactive: 13.1%.
In the case of `Cc1ccc(S(=O)(=O)/C=C\C#N)cc1` it was inactive: -19.9%; in that of `Nc1c(S(=O)(=O)O)cc(Nc2ccc(Nc3nc(Cl)nc(Nc4ccc(S(=O)(=O)O)cc4)n3)c(S(=O)(=O)O)c2)c2c1C(=O)c1ccccc1C2=O`, inactive: -18.2%.
For the molecule `CCN1C(=O)CC(CC(=O)N2CCC(c3nc4ccc(F)cc4[nH]3)CC2)(c2ccccc2C)C1=O` (stereo unspecified), the activation is inactive: -10.9%.
In the case of `COc1ccc(Oc2ncc3nc(-c4ccc(OC)cc4)c(=O)n(Cc4cccs4)c3n2)cc1`, the activation was inactive: -13.9%.
For the molecule `CS(=O)(=O)N1CCC[C@@]2(CCN(C(c3ccccc3)c3ccccc3)C2)C1`, the activation was inactive: -19.2%.
On to `COc1ccc(-c2nc3cnc(OC)nc3n(CCC#N)c2=O)cc1`, for which the activation is inactive: -3.07%.
Consider `C/C=C(\C)C(=O)O[C@H]1C[C@@]2(C)CCC(C(C)C)C2(O)CC[C@@]1(C)O` (stereo partly specified), for which the activation is inactive: -1.6%.
Consider `CNc1cc(NS(=O)(=O)c2ccc(N)cc2)nc(NC)n1`, for which the activation is inactive: -9.72%.
For `FC(F)(F)c1ccccc1-c1cc(N2CCNCC2)ncn1`, the activation was inactive: -10.7%.
`CC(=O)OCC1OC(n2c(Br)nc3c(=O)[nH]c(N)nc32)C(OC(C)=O)C1OC(C)=O` (stereo unspecified): the activation is inactive: -6.82%.
The value for `CC(C)(C)CC(=O)OCC(=O)[C@@]12OC(C)(C)O[C@@H]1C[C@H]1[C@@H]3CCC4=CC(=O)C=C[C@]4(C)[C@@]3(F)[C@@H](O)C[C@@]12C` was inactive: -6.08%.
